# Experimental data from the supplement of paper PMC3334620.
# Whole data set: some 33,000 sequences, median “E-score (-0.5 to 0.5)” near -0.035, cut for the highest 2% near 0.34. This is one part of the list.
# Molecular target: T1, Mot3 (UniProt P54785)
# T1 sequence: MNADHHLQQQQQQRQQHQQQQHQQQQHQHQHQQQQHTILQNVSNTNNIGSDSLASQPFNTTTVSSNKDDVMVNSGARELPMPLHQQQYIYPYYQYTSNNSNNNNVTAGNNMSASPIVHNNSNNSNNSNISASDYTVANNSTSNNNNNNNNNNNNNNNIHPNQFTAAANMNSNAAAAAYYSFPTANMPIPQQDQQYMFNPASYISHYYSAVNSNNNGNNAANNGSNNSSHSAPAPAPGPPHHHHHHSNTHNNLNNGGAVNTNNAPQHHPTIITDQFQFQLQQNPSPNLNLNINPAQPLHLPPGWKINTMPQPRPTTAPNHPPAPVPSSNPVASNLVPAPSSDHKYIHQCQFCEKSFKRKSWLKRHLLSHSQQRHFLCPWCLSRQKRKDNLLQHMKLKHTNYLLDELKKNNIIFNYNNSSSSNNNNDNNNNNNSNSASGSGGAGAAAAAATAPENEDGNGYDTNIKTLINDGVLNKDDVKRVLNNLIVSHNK
# Assay: PBM E-score (8-mer binding enrichment) (E-score (-0.5 to 0.5)); higher = stronger / more preferred TF binding; most listed sequences are background and not binding sites
# Conditions: protein concentration: 200 nM; construct: GST-full length
# In short: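 PURExpress in vitro transcription/translation supplied GST-tagged yeast transcription factors, either full-length or DNA-binding domain. Applied at about 100-200 nM to universal all-10-mer Agilent arrays double-stranded by primer extension, the bound protein was detected with fluorescent anti-GST. E-scores, modified Wilcoxon-Mann-Whitney statistics, were given by the Universal PBM Analysis Suite to ungapped eight-base words pooled with their reverse complements after masliner normalisation.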
row,Sequence,PBM E-score
1,CGGGGGGC,-0.295
2,GGGCCCAA,-0.208
3,CACGTGTC,0.183
4,ACTCCAAC,-0.0557
5,ACTCTAAT,-0.143
6,GATCCTCC,-0.303
7,GCAGCAAA,-0.13
8,AACTCATA,0.035
9,AGTTATAT,0.111
10,ACGCGCGA,0.144
11,CCGAGAGA,-0.222
12,CGGACAGC,-0.205
13,ACTCTAGG,-0.00613
14,GAACTATA,0.0585
15,GTACGAAA,0.0933
16,ACTCACCT,-0.15
17,GTTACCAA,0.0576
18,ACAGAGTC,0.0655
19,GTTGCTCA,-0.0143
20,GAGTTTCC,-0.085
21,AGCGCCAA,-0.225
22,CGGGACAG,-0.18
23,AAAGAGCA,-0.128
24,CTGCCCGA,-0.126
25,AAAAACCT,0.191

row,Sequence,PBM E-score
1,AGTATTAG,0.0221
2,CGGTGACC,-0.218
3,AGCAACCA,-0.0726
4,AAATCGGC,-0.156
5,CACGGATG,0.0568
6,AACTGATG,0.138
7,CCATCACA,-0.0499
8,AGGGCCTG,0.015
9,GAACATTA,0.205
10,ATTGCCTG,0.482
11,CGAGTCTA,-0.236
12,TCAAATCA,0.138
13,CAAGGGGA,-0.136
14,AAGCGCCC,-0.285
15,AAAGGGTA,0.045
16,ACACCAGC,-0.0519
17,ACGCTTAA,0.114
18,GCGCAAGC,-0.172
19,ACTCGGTC,0.0339
20,TAGACTCA,-0.236
21,ATAATAAA,0.132
22,CGCTTTGA,-0.205
23,AGGGGACC,-0.258
24,TACCATCA,-0.116
25,GGGTAAGA,-0.146

row,Sequence,PBM E-score
1,CTAATACC,-0.0621
2,GCCTACTA,0.257
3,ATTAGTTG,0.0815
4,ACTAGTCC,-0.201
5,AACTCGCG,0.12
6,ATCCTGAA,0.0408
7,AGACATCG,-0.14
8,CGATTACA,0.357
9,ATGCCAAA,0.0179
10,CGGTAAAC,-0.0562
11,AAGGTGGA,-0.124
12,AATGGCGC,-0.108
13,ACTGCTAT,-0.138
14,CACAGCAA,0.108
15,ACCGGTAT,-0.135
16,CGACTCAA,0.0985
17,GTCCCCGA,-0.00634
18,CGACGTAA,0.261
19,AAGATAAC,0.226
20,TGCCCTAA,-0.0162
21,ACTTTTTA,0.0914
22,CGGTGTCC,-0.376
23,GCAGCGCC,-0.0844
24,ACGTAGCT,-0.0294
25,GCAACGCA,-0.0525

row,Sequence,PBM E-score
1,CTGGGTGA,-0.0611
2,GGCGTGTA,0.383
3,ATCGTAAA,0.146
4,CACCTTTC,-0.0989
5,AGAGCAAT,-0.16
6,AAGAGCGG,-0.171
7,TCACCCGA,-0.0973
8,ATGGTCCC,-0.135
9,CGGTACTC,-0.0673
10,ATATTTAA,0.0932
11,GACATTGC,0.00735
12,ATCCTGTC,-0.0352
13,ATAGCTCA,-0.059
14,AACATAGT,0.241
15,CACTAAGA,0.0619
16,CGGGCCAA,-0.373
17,GCATAAAC,0.0484
18,CACATCAC,-0.0113
19,AAGAGGAC,-0.25
20,CTAAGTAC,0.101
21,AGCTGATA,-0.0692
22,AAAAAGAC,-0.0453
23,TCAGACGA,-0.216
24,CTTATCCC,-0.0598
25,CGTCGGGC,-0.305

row,Sequence,PBM E-score
1,GAACTAAC,-0.0148
2,CAGTGCCC,0.00404
3,AATACTCC,-0.144
4,ATCCATCA,-0.0789
5,GGTCAGAC,-0.242
6,GCCTCTAA,0.0682
7,CGATAACC,-0.189
8,CCTTTCCA,-0.151
9,GAAGCGTA,-0.137
10,CGGTTATA,-0.0889
11,CTGCCCGC,-0.114
12,GCACGGGA,-0.112
13,GACCTTTA,0.0737
14,AATCTATC,-0.122
15,AACTGGAT,-0.153
16,ACTGAGGC,-0.119
17,CCTTTACG,0.172
18,AATGGAAT,0.0802
19,CTGAAGCC,-0.0623
20,GATGTCTA,-0.123
21,CCTAGGAA,0.018
22,ATAAAGTG,0.113
23,ATAGTTTC,-0.159
24,CAATGTGG,-0.167
25,ACTAGATA,0.0586

row,Sequence,PBM E-score
1,CAGTACGC,0.0161
2,CTGACTCA,-0.0366
3,ATTTTGTC,0.0982
4,GGCGAGAC,-0.213
5,ACGCTAAA,0.0401
6,ACCTTCAT,0.18
7,GGCCATCA,-0.158
8,GATCTGAA,-0.359
9,CAGTCGAA,-0.0764
10,AAGTTATT,0.189
11,CGGGACTC,-0.223
12,ATCCCTGG,-0.149
13,ATTAAAAT,0.123
14,CTTATTCA,-0.211
15,TAATAAGA,0.085
16,CGTCGAGA,-0.15
17,AATAACTA,0.192
18,GACGTGGC,-0.0954
19,CGGAGTAA,-0.0235
20,AGAAATAT,0.134
21,ACGTCGCG,0.104
22,GTCATAAA,-0.011
23,GACGATCA,-0.109
24,CAAGTAGG,0.105
25,GACCTCTA,-0.102

row,Sequence,PBM E-score
1,AAACACGC,0.312
2,CAACTCCA,-0.0879
3,AATTGGAT,-0.0393
4,AACATCGC,0.0333
5,GCTTTGGA,0.0118
6,AGGATAAT,0.0447
7,GAAGTCTA,-0.256
8,ACCAGGCG,-0.221
9,ATGCAAGA,0.209
10,TGTGCGAA,-0.0504
11,AACATCTT,-0.0445
12,AGCATCGA,0.0686
13,AAAACATT,0.187
14,CCATTAAG,-0.138
15,TCCCACAA,-0.147
16,CGGTAGTC,-0.299
17,GCAATGAC,0.0358
18,AAGTCTTG,0.121
19,CGGGGCTA,-0.291
20,CTTTACTC,0.247
21,ACGCCCGG,-0.159
22,GGGTTTTA,0.151
